Measured values as given in paper PMC10307035, “Antiviral activity of singlet oxygen-photogenerating perylene compounds against SARS-CoV-2: Interaction with the viral envelope and photodynamic virion inactivation” (Virus Research, 2023).

tested on: SARS-CoV-2 surface antigen (spike protein S1)

Row | Compound | expression of SARS-CoV-2 surface antigen (spike protein S1)
1 | O=c1[nH]c(=O)n([C@H]2C[C@H](O)[C@@H](CO)O2)cc1C#Cc1ccc2c3cccc4cccc(c5cccc1c52)c43 [Compound 2, 5-(perylen-3-yl)ethynyl-2′-deoxy-uridine] | reduce the expression
2 | CC(C)(C)C(=O)OCn1c(=O)c(C#Cc2ccc3c4cccc5cccc(c6cccc2c63)c54)cn(CC(=O)N(CCO)CCO)c1=O [Compound 13] | reduce the expression
3 | O=C(NCCCCO)c1ccc(-c2ccc3c4cccc5cccc(c6cccc2c63)c54)s1 [Compound 17] | reduce the expression
